In patent US8927760B2, “Colchicine derivatives or pharmaceutically acceptable salts thereof, method for preparing said derivatives, and pharmaceutical composition comprising said derivatives” (priority 2010, dated 2015):
“And” between values parts separate entries of the source, which are not always exact repeats. Equal values may be shown once. At least one read-out could not be matched to a standard name with certainty. Some results were stated once for a whole list of compounds, not compound by compound.

Tested on: streptozotocin induced diabetic Fischer 344 rats with transplanted Lewis rat islet cells
Test: Allogeneic pancreatic islet cell transplantation - combined intraperitoneal administration
Assay type: in vivo
Conditions: for Number of days for which islet cell function was maintained (individual rats): i.p. for 14 days; for duration of immunomodulatory effects: combined administration with cyclosporin A, dose not given at this place
Procedure: Streptozotocin is a drug that destroys pancreatic islet cells to induce diabetes and is used to create experimental diabetic animal models. Allogeneic islets were transplanted into the livers of streptozotocin induced diabetic rat by injection into the portal vein. The functioning of transplanted islets was assessed by daily measurements of blood glucose levels. Islets were considered rejected when the blood glucose level was 200 mg/dl on two consecutive days.
35 mg/kg of streptozotocin (50 mg/mL) dissolved in a 0.1 M citrate buffer solution (pH 4.5) was intraperitoneally injected into 8-week-old male Fischer 344 rats (F344) weighing about 200 to 220 g. Then, the blood glucose level was measured after 1 week, and the first day when the blood glucose level increased over 300 mg/dl and the increase was repeated more than twice was considered as the date of diagnosis of diabetes. The rats were used in transplantation 3 weeks after the administration of streptozotocin.
Pancreases of 8-week-old male Lewis rats were extracted on the 3 weeks after the diabetes was induced in Fischer rats, and islet cells were isolated. The isolated islet cells were cultured in a CO2 incubator at 37° C. for a day, and the cultured islet cells were transplanted into the diabetic Fischer rats.
However, considering the interaction between the two drugs, the two drugs were introduced in different syringes and injected to right and left sides of the abdominal cavity, respectively, and the measurement results are shown in the following table 4.

[1] = 10 μg/kg combined with CsA (5 mg/kg)
[2] = 50 μg/kg combined with CsA (5 mg/kg)

| Compound | duration of immunomodulatory effects | Number of days for which islet cell function was maintained (individual rats) [2] | other results |
| --- | --- | --- | --- |
| COc1cc2c(c(OC)c1OC)-c1ccc(OC)c(=O)cc1C(NC(=O)OCC1c3ccccc3-c3ccccc31)CC2 (stereo not shown) [Compound 14, (1,2,3,10-tetramethoxy-9-oxo-5,6,7,9-tetrahydro-benzo[a]heptalen-7-yl)-carbamic acid 9H-fluoren-9-ylmethyl ester] | more than 100 days |  | Number of days for which islet cell function was maintained (individual rats) [1]: 27 days and 29 days and 30 days; Number of days for which islet cell function was maintained (individual rats) (40 μg/kg combined with CsA (5 mg/kg)): 24 days and 25 days and 27 days and 28 days and 33 days and 47 days and 70 days and > 101 days and > 201 days |
| COc1cc2c(c(OC)c1OC)-c1ccc(OC)c(=O)cc1[C@@H](NC(C)=O)CC2 [Colchicine, colchicine] |  |  | Number of days for which islet cell function was maintained (individual rats) [1]: 5 days and 6 days and 13 days |
| COc1cc2c(c(OC)c1OC)-c1ccc(OC)c(=O)cc1C(NC(=O)CC1c3ccccc3-c3ccccc31)CC2 (stereo not shown) [Compound 23, 2-(9H-fluoren-9-yl)-N-(1,2,3,10-tetramethoxy-9-oxo-5,6,7,9-tetrahydro-benzo[a]heptalen-7-yl)-acetamide] |  | 22 days and 31 days |  |
| COc1cc2c(c(OC)c1OC)-c1ccc(OC)c(=O)cc1C(NC(=O)OCC1c3cc(C(C)(C)C)ccc3-c3ccc(C(C)(C)C)cc31)CC2 (stereo not shown) [Compound 17, (1,2,3,10-tetramethoxy-9-oxo-5,6,7,9-tetrahydro-benzo[a]heptalen-7-yl)-carbamic acid 2,7-di-tert-butyl-9H-fluoren-9-ylmethyl ester] |  | 23 days and 24 days and 26 days and 74 days |  |
| COc1cc2c(c(OC)c1OC)-c1ccc(OC)c(=O)cc1C(NC(=O)OCc1ccc(C(C)C)cc1)CC2 (stereo not shown) [Compound 9, (1,2,3,10-tetramethoxy-9-oxo-5,6,7,9-tetrahydro-benzo[a]heptalen-7-yl)-carbamic acid 4-isopropyl benzyl ester] | more than 100 days | 27 days and 32 days and > 108 days |  |
| COc1cc2c(c(OC)c1OC)-c1ccc(OC)c(=O)cc1C(NC(=O)OCCC1c3ccccc3-c3ccccc31)CC2 (stereo not shown) [Compound 18, (1,2,3,10-tetramethoxy-9-oxo-5,6,7,9-tetrahydro-benzo[a]heptalen-7-yl)-carbamic acid 2-(9H-fluoren-9-yl)-ethyl ester] |  | 27 days and 29 days |  |
| COc1ccc(COC(=O)NC2CCc3cc(OC)c(OC)c(OC)c3-c3ccc(OC)c(=O)cc32)cc1 (stereo not shown) [Compound 7, (1,2,3,10-tetramethoxy-9-oxo-5,6,7,9-tetrahydro-benzo[a]heptalen-7-yl)-carbamic acid 4-methoxy benzyl ester] | more than 100 days | 14 days and 15 days and 24 days and > 101 days and >154 days | Number of days for which islet cell function was maintained (individual rats) (100 μg/kg combined with CsA (5 mg/kg)): 33 days and > 70 days and > 113 days |
| COc1ccc(CCC(=O)NC2CCc3cc(OC)c(OC)c(OC)c3-c3ccc(OC)c(=O)cc32)cc1 (stereo not shown) [Compound 22, 3-(4-methoxy-phenyl)-N-(1,2,3,10-tetramethoxy-9-oxo-5,6,7,9-tetrahydro-benzo[a]heptalen-7-yl)-propionamide] |  | 5 days and 6 days and 51 days |  |
